Data on 1 molecule can be found in PubChem BioAssay AID1845200 (Molecular Pharmacology Branch, DTP, NCI, 2023).

The test relates to ASPS-1 complex tumor spheroids, viability. The test is described as follows: Anticancer human tumor ASPS-1 cell line growth inhibition.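 Also: spheroids exposed to agents for 7 days after 3 days of growth; 100% = DMSO vehicle treated spheroids.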 The settings on record: compound alone 0.3 µM; stronger effect = lower value. The source says:
Multicellular complex tumor spheroid response to DNA repair inhibitors in combination with DNA-damaging drugs
This study explores the anticancer activities of DNA-damaging drugs and inhibitors of DNA damage repair, both as single agents and in combinations. Complex tumor spheroids comprised of malignant cells, endothelial cells and mesenchymal stem cells served as an in vitro model for human solid tumors. This model system incorporates physiologically relevant features and patient-derived or established malignant cell lines with clinically relevant genetic alterations from many tumor types. Twenty-six patient-derived or established malignant cell lines were evaluated representing sarcoma, melanoma, small cell lung cancer (SCLC), non-small cell lung cancer (NSCLC), as well as bladder, ovarian and pancreatic cancers. The concentration ranges selected for each drug and investigational agent were based upon clinically achievable concentrations if the clinical Cmax of the agent was known.
Compounds. […] If the clinical Cmax for an agent had not been determined, the highest concentration tested was 10 microM. […]

Not every entry of the source has a single result; some have several. The other results are left out here. An entry can have further records. Values given together repeat one measurement across runs, samples, wells, individuals or studies. Dates in brackets are months of testing.

Take `CC[C@@]1(O)C(=O)OCc2c1cc1n(c2=O)Cc2cc3c(CN(C)C)c(O)ccc3nc2-1`: the viability, T/C is 47.8, 43.3, 50.7, 50.2, 52% [2019-11] and 73.8, 70.2, 65.3, 60.7, 64.4% [2019-12].
